Data on 43 compounds can be found in PMC4336329 (PLoS ONE, 2015).

In all, about 310,000 compounds went through this assay and about 14,000 (4.5%) showed an effect of 50% or more. The effect is printed as a negative number. The list shows a part of the results.
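Further: peak tail current of the secondary pulse compared with the same well before compound.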

For the experiment, the target named is human ether-à-go-go-related gene (hERG) potassium channel (human, UniProt Q12809). Nature of the experiment: primary screen, population patch clamp on CHO cells stably expressing hERG.
Chain of human ether-à-go-go-related gene (hERG) potassium channel (Q12809 whole entry, looked up): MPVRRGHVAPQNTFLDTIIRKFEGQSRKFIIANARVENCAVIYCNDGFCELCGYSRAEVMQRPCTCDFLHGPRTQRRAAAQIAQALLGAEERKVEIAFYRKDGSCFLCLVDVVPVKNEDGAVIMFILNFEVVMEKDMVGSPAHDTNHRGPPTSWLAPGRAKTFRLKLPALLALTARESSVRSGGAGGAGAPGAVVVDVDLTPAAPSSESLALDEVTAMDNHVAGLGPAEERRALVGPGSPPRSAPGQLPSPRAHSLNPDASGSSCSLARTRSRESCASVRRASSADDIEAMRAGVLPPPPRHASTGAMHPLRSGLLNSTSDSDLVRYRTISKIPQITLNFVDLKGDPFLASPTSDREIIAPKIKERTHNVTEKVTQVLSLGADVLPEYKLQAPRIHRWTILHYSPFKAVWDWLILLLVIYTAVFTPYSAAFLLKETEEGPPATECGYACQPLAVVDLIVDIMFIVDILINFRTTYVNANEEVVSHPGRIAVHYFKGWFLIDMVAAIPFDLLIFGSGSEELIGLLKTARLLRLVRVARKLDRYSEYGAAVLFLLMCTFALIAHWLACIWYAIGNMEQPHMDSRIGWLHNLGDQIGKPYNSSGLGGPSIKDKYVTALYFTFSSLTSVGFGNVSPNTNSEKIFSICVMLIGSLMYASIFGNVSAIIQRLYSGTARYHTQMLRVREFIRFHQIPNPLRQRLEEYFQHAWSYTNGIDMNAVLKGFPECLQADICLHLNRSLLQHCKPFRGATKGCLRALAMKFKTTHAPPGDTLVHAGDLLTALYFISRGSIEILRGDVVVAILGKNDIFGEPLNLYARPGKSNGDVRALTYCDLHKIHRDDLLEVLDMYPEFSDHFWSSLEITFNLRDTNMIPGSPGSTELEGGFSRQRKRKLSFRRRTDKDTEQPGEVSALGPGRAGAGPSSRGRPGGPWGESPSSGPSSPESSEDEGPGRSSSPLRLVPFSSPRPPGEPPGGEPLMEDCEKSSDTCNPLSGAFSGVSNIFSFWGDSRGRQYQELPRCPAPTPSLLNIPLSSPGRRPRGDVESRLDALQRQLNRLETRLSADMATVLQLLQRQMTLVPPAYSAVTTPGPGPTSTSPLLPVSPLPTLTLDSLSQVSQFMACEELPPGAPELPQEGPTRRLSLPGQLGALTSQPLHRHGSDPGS
Turning to `O=C(COC(=O)c1ccc(F)cc1)Nc1nc2ccc([N+](=O)[O-])cc2s1`, the “hERG current change (%, negative = inhibition) at 10uM” value is given as 17.1%. As to `O=C(CSc1n[nH]c(-c2ccccc2O)n1)NC1CCCCC1`, the “hERG current change (%, negative = inhibition) at 10uM” value is given as 7.36%. For the compound `Nc1cccc(P(=O)(c2ccccc2)c2ccccc2)c1`, the “hERG current change (%, negative = inhibition) at 10uM” value stood at 14.5%. As to `COC(=O)C1=C(C)N(CC(C)C)C(=O)/C1=C\c1cccs1`, the “hERG current change (%, negative = inhibition) at 10uM” value is -0.448%. The value for `CCC(C(=O)N1CCC(N2CCCCC2)CC1)n1nc(C)c2sc3ccccc3c2c1=O` (stereo not shown) was -35.6%; that for `COc1ccc(C(NC(=O)CN2CCCCCC2)c2ccc(OC)cc2)cc1` was -65.9%.

On to `COc1cc(C(=O)Nc2ccc(Br)cc2C(=O)c2cc(OC)c(OC)c(OC)c2)cc(OC)c1OC`, for which the “hERG current change (%, negative = inhibition) at 10uM” value came out at 12%. Take `CCn1cc2nc(SCC(=O)Nc3ccc(F)cc3F)n(Cc3ccccc3)c(=O)c2n1`: the “hERG current change (%, negative = inhibition) at 10uM” value is -40%. The value for `COc1cc(C(=O)NCC(c2ccco2)N2CCOCC2)cc(OC)c1OC` (stereo not shown) was 16.9%; that for `O=C(c1cc(-c2ccccc2)on1)N1CCN(Cc2ccc3c(c2)OCO3)CC1` was -50.1%; that for `COc1ccc(C2Nc3ccccc3C(=O)N2c2ccc(F)cc2)cc1CSc1ccccn1` (stereo not shown) was -0.322%. For the compound `CC1=NN(C(C#N)c2ccccc2O)C(C)(C)C1` (stereo not shown), the “hERG current change (%, negative = inhibition) at 10uM” value turned out to be 17.9%.

`C=C(C)c1cccc(C(C)(C)NC(=O)N2CC(C)OC(C)C2)c1` (stereo not shown): the “hERG current change (%, negative = inhibition) at 10uM” value turned out to be 3.77%.

With `Cc1ccc(C2=[N+]([O-])C3(CCCCC/C3=N\NC(N)=O)N(O)C2(C)C)o1` (stereo not shown), the “hERG current change (%, negative = inhibition) at 10uM” value came to 9.8%.

With `CN(C)CCCCCCCCCCC(=O)/C=N/O.Cl`, the “hERG current change (%, negative = inhibition) at 10uM” value is -9.03%. With `COCCNC(=O)C1CC(c2ccccc2[N+](=O)[O-])=NO1` (stereo not shown), the “hERG current change (%, negative = inhibition) at 10uM” value amounted to 17.8%.

For `O=C(Cn1nnc(-c2ccc(OCc3ccccc3F)cc2)n1)N1CCOCC1`, the “hERG current change (%, negative = inhibition) at 10uM” value is recorded as -4.97%.

For `O=C(c1ccc(S(=O)(=O)N2CCCCC2)cc1)N1CCN(c2ccccc2)CC1`, the “hERG current change (%, negative = inhibition) at 10uM” value stood at 3.03%.

For `CC(C)(C)NC(=O)CN(C(=O)CSc1nnc(COc2ccccc2)o1)c1cccc(F)c1`, the “hERG current change (%, negative = inhibition) at 10uM” value was found to be 5.74%. As for `Cc1cccc(NC(=O)CCNS(=O)(=O)c2cccc3nsnc23)c1C`, the “hERG current change (%, negative = inhibition) at 10uM” value amounted to 3.73%.

For the compound `Cc1[nH]c(=O)[nH]c1C(=O)CCCCC(=O)O`, the “hERG current change (%, negative = inhibition) at 10uM” value is -57.7%. With `Cc1cccc(C(=O)Oc2ccc(/C=N/NC(=O)c3ccccc3O)cc2)c1`, the “hERG current change (%, negative = inhibition) at 10uM” value worked out at 17.5%. For `COC(=O)c1ccc(C(=O)OC)c(NC(=S)N2CCN(c3ccccc3)CC2)c1` the value was -19.1%. In the case of `Cn1c(N)c(C(C[N+](=O)[O-])c2c(F)cccc2Cl)c(=O)n(C)c1=O` (stereo not shown), the “hERG current change (%, negative = inhibition) at 10uM” value was found to be 16.2%. As for `O=C(CSc1ncnc2sc3c(c12)CCCC3)N1CCC(c2noc3ccc(F)cc23)CC1`, the “hERG current change (%, negative = inhibition) at 10uM” value is -7.24%. As for `CCN(CC)CCCNC(=O)COc1ccc2oc3c(c2c1)CCCC3.Cl`, the “hERG current change (%, negative = inhibition) at 10uM” value was -45.7%. The value for `Cc1cc(C)cc(N(CC(=O)NC2CCCC2)C(=O)CNC(=O)c2ccco2)c1` was 10.7%; that for `CNc1nc(OCC(F)(F)F)nc(N2CCOCC2)n1` was 5.76%. On to `CCCc1cc(C(=O)NCCc2ccc(OC)c(OC)c2)no1`, for which the “hERG current change (%, negative = inhibition) at 10uM” value is reported as -18.4%.

As for `CCOC(=O)c1sc(NC(=O)c2ccncc2)c(C#N)c1C`, the “hERG current change (%, negative = inhibition) at 10uM” value came out at 22.8%. For `O=C(COc1ncnc2cc(Cl)ccc12)c1ccccc1`, the “hERG current change (%, negative = inhibition) at 10uM” value is given as 12.3%.

In the case of `Cc1cc(=O)[nH]c2nnc(-c3ccc(Cl)cc3)n12`, the “hERG current change (%, negative = inhibition) at 10uM” value is given as 15.1%. Turning to `CCOc1cc(CN2CCC(n3nccc3NC(=O)C3CC3)CC2)ccc1O`, the “hERG current change (%, negative = inhibition) at 10uM” value was -22%.

Consider `Cc1nn(C(=O)c2ccco2)c(C)c1Sc1ccc(Cl)cc1`, for which the “hERG current change (%, negative = inhibition) at 10uM” value was 11.9%. The value for `COCc1ccc(CN2CCC(n3nccc3NC(=O)CCOc3ccccc3)CC2)o1` was -0.748%; that for `Cc1cc(C)cc(N(CC(=O)NCc2ccco2)C(=O)c2snc(C(N)=O)c2N)c1` was 4.92%; that for `CC[C@H](C)[C@H](NC(=O)CNC(=O)COc1cc2c(c3oc(=O)cc(C)c13)CCC(C)(C)O2)C(=O)O` was 11.1%. With `COc1ccc(NC(=O)CN(C)C(=O)C2CC(=O)N(c3cccc4ccccc34)C2)cc1` (stereo not shown), the “hERG current change (%, negative = inhibition) at 10uM” value came out at 1.33%. For `O=C(CCCCCN1C(=O)CCC1=O)Nc1ccc2c(c1)OCCO2`, the “hERG current change (%, negative = inhibition) at 10uM” value is recorded as 8.47%.

On to `CCOc1cc2c3c(c1)C(C)CC(C)(C)N3C(=O)C2=O` (stereo not shown), for which the “hERG current change (%, negative = inhibition) at 10uM” value is -6.41%. Consider `CCN1C(=O)[C@H]2[C@@H](c3ccc(C)cc3)N3C(=O)N(c4ccccc4)C(=O)[C@@]3(CC)[C@H]2C1=O`, for which the “hERG current change (%, negative = inhibition) at 10uM” value turned out to be 3.81%. Take `O=C(O)C(=O)O.c1cc(CN2CCN(C3CCCCCC3)CC2)ccn1`: the “hERG current change (%, negative = inhibition) at 10uM” value is given as -35.7%. The value for `CC1(C)CC2(CCO1)OC(=O)CC2C(=O)Nc1ccc(Br)cc1` (stereo not shown) was -11.3%.
